Results on 18 sequences are retold here after article PMC12820563.

The other results are listed elsewhere or left out. The list includes weakly bound sequences.

The test deals with T1, MBP-FoxP3dN (UniProt Q99JB6).
T1 sequence: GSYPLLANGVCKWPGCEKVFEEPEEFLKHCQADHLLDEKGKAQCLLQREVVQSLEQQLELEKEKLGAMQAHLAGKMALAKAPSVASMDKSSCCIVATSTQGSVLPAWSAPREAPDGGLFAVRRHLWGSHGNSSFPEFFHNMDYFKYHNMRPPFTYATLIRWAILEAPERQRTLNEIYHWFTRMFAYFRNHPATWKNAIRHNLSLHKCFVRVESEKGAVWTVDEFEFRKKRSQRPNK
Description: PD-seq (MBP pull-down with sequencing). The conditions noted are these: 20 mM Tris-HCl pH 7.5, 100 mM NaCl, 1.5 mM MgCl2, 0.4 uM protein, 0.1 uM dsDNA library, 30 min, room temperature, amylose pull-down; high values mean tight binding; double strand, one strand shown.
“GATGATTGTTCTCCCAGCTGATGAATTGATGTCTTCGAGTAAACAAATTTTCCTAATCTTTCTGTTCAAGCGCCATCTAC”: the binding signal (RPM ratio (pull-down/input)) is 1.07.
The result for “GATGATTGTTCTCCCAGCTGATGAATTACAGATTTCGAGTAAACAAATTTTCCTAATCTTTCTGTTCAAGCGCCATCTAC” reads 0.415; that for “GATGATTGTTCTCCCAGCTGATGAATTCGCAACCTCGAGTAAACAAATTTTCCTAATCTTTCTGTTCAAGCGCCATCTAC”, 2.25; that for “GATGATTGTTCTCCCAGCTGATGAATTAGTATTCTCGAGTAAACAAATTTTCCTAATCTTTCTGTTCAAGCGCCATCTAC”, 2.97.
The result for “GATGATTGTTCTCCCAGCTGATGAATTCGCAGGTTCGAGTAAACAAATTTTCCTAATCTTTCTGTTCAAGCGCCATCTAC” reads 0.338; that for “GATGATTGTTCTCCCAGCTGATGAATTCTATGTGTCGAGTAAACAAATTTTCCTAATCTTTCTGTTCAAGCGCCATCTAC”, 1.96; that for “GATGATTGTTCTCCCAGCTGATGAATTTGAGTCCTCGAGTAAACAAATTTTCCTAATCTTTCTGTTCAAGCGCCATCTAC”, 0.775.
Then “GATGATTGTTCTCCCAGCTGATGAATTTGGGGTCTCGAGTAAACAAATTTTCCTAATCTTTCTGTTCAAGCGCCATCTAC”, with 1.1.
“GATGATTGTTCTCCCAGCTGATGAATTCGAAATTTCGAGTAAACAAATTTTCCTAATCTTTCTGTTCAAGCGCCATCTAC”: the binding signal (RPM ratio (pull-down/input)) was determined as 0.328.
With “GATGATTGTTCTCCCAGCTGATGAATTTCTTACCTCGAGTAAACAAATTTTCCTAATCTTTCTGTTCAAGCGCCATCTAC”, the binding signal (RPM ratio (pull-down/input)) is 0.282.
With “GATGATTGTTCTCCCAGCTGATGAATTTGGTGCGTCGAGTAAACAAATTTTCCTAATCTTTCTGTTCAAGCGCCATCTAC”, the binding signal (RPM ratio (pull-down/input)) was found to be 1.7.
“GATGATTGTTCTCCCAGCTGATGAATTATCGTTATCGAGTAAACAAATTTTCCTAATCTTTCTGTTCAAGCGCCATCTAC”: the binding signal (RPM ratio (pull-down/input)) stood at 0.751.
Then “GATGATTGTTCTCCCAGCTGATGAATTACTTGGATCGAGTAAACAAATTTTCCTAATCTTTCTGTTCAAGCGCCATCTAC”, with 0.225; and “GATGATTGTTCTCCCAGCTGATGAATTTCGCGACTCGAGTAAACAAATTTTCCTAATCTTTCTGTTCAAGCGCCATCTAC”, with 2.19.
The result for “GATGATTGTTCTCCCAGCTGATGAATTAGGGGGTTCGAGTAAACAAATTTTCCTAATCTTTCTGTTCAAGCGCCATCTAC” reads 0.583; that for “GATGATTGTTCTCCCAGCTGATGAATTTCGATCGTCGAGTAAACAAATTTTCCTAATCTTTCTGTTCAAGCGCCATCTAC”, 0.433; that for “GATGATTGTTCTCCCAGCTGATGAATTACCTCTTTCGAGTAAACAAATTTTCCTAATCTTTCTGTTCAAGCGCCATCTAC”, 0.358.
On to “GATGATTGTTCTCCCAGCTGATGAATTGGCACATTCGAGTAAACAAATTTTCCTAATCTTTCTGTTCAAGCGCCATCTAC”, for which the binding signal (RPM ratio (pull-down/input)) came out at 0.576.
